This passage reports viability, T/C and IC50 results from PubChem BioAssay AID1963835 (Molecular Pharmacology Branch, DTP, NCI, 2024).

The subject of the experiment is 699152-130-R-J1-PDC complex spheroid viability. Nature of the experiment: Anticancer human tumor 699152-130-R-J1-PDC patient-derived pancreatic carcinoma cell line growth inhibition [POLQ]. The settings on record: for viability, T/C: stronger effect = lower value. On the procedure:
Multicellular complex tumor spheroid response to Polymerase (POL) inhibitors (novobiocin, ART-558, RP6685) in combination with a variety of drugs and investigational agents in selected tumor cell lines
The POL inhibitors (novobiocin, ART-558, and RP6685) were evaluated both individually and in combination with standard of care and investigational anticancer small molecules within a complex spheroid model of solid tumors. . Complex spheroids include a stromal component modeled by human endothelial cells (HUVEC) and fibroblasts modeled by human mesenchymal stem cells (MSCs). The concentration ranges selected for each drug and investigational agent were based upon clinically achievable concentrations if the clinical Cmax of the agent was known.
Compounds. The drugs and investigational agents: novobiocin (NSC847541), ART-558 (NSC835418), RP-6685 (NSC848927), peposertib (NSC802822), ceralasertib (NSC780249), elimusertib (NSC800525), camonsertib (NSC841442), AZD-1390 (NSC803789), olaparib (NSC753686), talazoparib (NSC767125), rucaparib (NSC756644), sotorasib (NSC818433), MRTX-1133 (NSC836407), SN-38 (NSC673596), topotecan (NSC609699), epotoside (NSC141540), doxorubicin (NSC123127), gemcitabine (NSC613327), 5-fluorouracil (NSC19893), paclitaxel (NSC125973), vemurafenib (NSC761431), MSA-2 (NSC828583), SN-011 (NSC837082), adavosertib (NSC754352), prexasertib (NSC758257), carboplatin (NSC241240) and oxaliplatin (NSC266046), were obtained from the National Cancer Institute (NCI) Developmental Therapeutics Program Chemical Repository (21). The FDA-approved anticancer drug set is available from the Developmental Therapeutics Program at https://dtp.cancer.gov/organization/dscb/obtaining/. […] The stock solutions were prepared in dimethyl sulfoxide (DMSO, Sigma-Aldrich, St. Louis, MO, cat. D2650), except for the platinum compounds which were prepared in saline (Quality Biological, Gaithersburg, MD, cat. 114-055-101), at 800-fold the tested concentration and stored at -70 degrees C prior to their use. All drugs and investigational agents were tested over a range starting from a high concentration at or near the clinical Cmax and decreasing in half-log increments. If the clinical Cmax for an agent had not been determined, the highest concentration tested was 10 microM, except for SN-38, which was tested at a high concentration of 1 microM.
Cell Culture. All cells were maintained in an incubator at 37 degrees C and 5% CO2 with 95% humidity. The PDC lines were cultured according to standard operating procedures established by the NCI PDMR (https://pdmr.cancer.gov). Table 3 of the manuscript, lists the cell lines along with the number of the three cell types plated to form the mct-spheroids and media for tumor cell growth. After thawing, all PDC lines, except 997537-175-T-J1-PDC and 415267-285-R-J2-PDC, were cultured in Matrigel-coated flasks prepared with a working solution of 1X Ham's F-12 nutrient mix, without supplementation (Thermo Fisher Scientific, cat. 11765054), 100 U/mL penicillin-streptomycin (Thermo Fisher Scientific, cat. 15140122), and 2.5% Matrigel (Corning Inc., Corning, NY, cat. 354248) for the first three passages. The two PDC lines 997537-175-T-J1-PDC and 415267-285-R-J2-PDC were cultured on uncoated flasks. The 857933-349-R-J2-PDC line was cultured in 6C/Colon 1B media containing advanced DMEM/F-12 (Thermo Fisher Scientific, cat. 12634028), 10 mM HEPES (Thermo Fisher Scientific, cat. 15630080), 1X GlutaMAX supplement (Thermo Fisher Scientific, cat. 35050061), 0.1 mg/mL primocin (InvivoGen, San Diego, CA, cat. ant-pm-2), 10% defined fetal bovine serum, heat inactivated (HyClone Laboratories Inc., Logan, UT, cat. SH30070.03HI), 50% L-WRN conditioned media (ATCC, cat. CRL-3276), 1.25 mM N-Acetyl-L-cysteine (Sigma-Aldrich, cat. A9165), 10 mM nicotinamide (Sigma-Aldrich, cat. N0636), 1X B-27 supplement (Thermo Fisher Scientific, cat. 17504044), 1X N-2 supplement (Thermo Fisher Scientific, cat. […]

The source holds more than one record for some entries. The other results are left out here. There may be further records. Values given together are repeats across runs, samples, wells, individuals or studies. Marks such as (2×) stand for listed records that agree. A date in brackets names the month of the test. Bounds are passed on as bounds.
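Note: spheroids exposed to agents for 7 days before viability reading.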
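Throughout, for viability, T/C: percent of DMSO vehicle control viability so 100% = vehicle and 0% = no viable signal.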

Usually viability, T/C stands for the ratio of treated to control. Regarding `Cc1cccc(N(C)C(=O)C2C(O)CCN2c2nc(C)cc(C(F)(F)F)c2C#N)c1` (stereo not drawn), the viability, T/C (compound alone 3.16 µM) is 110, 107, 99.6, 93.3, 106, 88.9, 109, 113% [2023-11] and 98.7, 100, 115, 97.6, 104% [2023-12].
In general, IC50 refers to the concentration needed to halve the response being measured. Consider `COC1C(OC(N)=O)C(O)C(Oc2ccc3c(O)c(NC(=O)c4ccc(O)c(CC=C(C)C)c4)c(=O)oc3c2C)OC1(C)C` (stereo not drawn), for which the viability, T/C is 107, 106, 39.9, 95.9, 92.1, 109, 99, 105 (2×), 99.9, 111, 99.6, 94.9% (compound alone 0.0316 µM); 94, 106, 39.1, 103 (2×), 101, 102, 113, 100, 95.8 (2×), 104% (compound alone 0.1 µM); 97.2, 102 (2×), 39.7, 92.9, 93.2, 104, 101, 98.5, 105, 97.3, 91.5, 99.2% (compound alone 0.316 µM); 122, 106, 42.6, 102, 92.5, 104 (2×), 98.8, 118, 96.7, 108, 95.1, 101% (compound alone 1 µM); 108, 100, 40.1, 93.4, 117, 96.3, 96, 91.8, 107, 97, 110, 112, 115% (compound alone 3.16 µM); 125, 116, 40.8, 102 (3×), 112, 103, 104, 119, 107, 98.3, 99.5% (compound alone 10 µM). Besides, the IC50 (compound alone, run of 11/27/2023) is < 31.6 nM and > 10 µM.
